Out of some 310,000 compounds screened, about 2,200 (0.71%) showed an effect of 50% or more. Effects have a minus sign here. The list shows a part of the results.

The test deals with human ether-à-go-go-related gene (hERG) potassium channel (human, UniProt Q12809). The experiment in a line: primary screen, population patch clamp on CHO cells stably expressing hERG.
Sequence of human ether-à-go-go-related gene (hERG) potassium channel (Q12809 whole entry, looked up): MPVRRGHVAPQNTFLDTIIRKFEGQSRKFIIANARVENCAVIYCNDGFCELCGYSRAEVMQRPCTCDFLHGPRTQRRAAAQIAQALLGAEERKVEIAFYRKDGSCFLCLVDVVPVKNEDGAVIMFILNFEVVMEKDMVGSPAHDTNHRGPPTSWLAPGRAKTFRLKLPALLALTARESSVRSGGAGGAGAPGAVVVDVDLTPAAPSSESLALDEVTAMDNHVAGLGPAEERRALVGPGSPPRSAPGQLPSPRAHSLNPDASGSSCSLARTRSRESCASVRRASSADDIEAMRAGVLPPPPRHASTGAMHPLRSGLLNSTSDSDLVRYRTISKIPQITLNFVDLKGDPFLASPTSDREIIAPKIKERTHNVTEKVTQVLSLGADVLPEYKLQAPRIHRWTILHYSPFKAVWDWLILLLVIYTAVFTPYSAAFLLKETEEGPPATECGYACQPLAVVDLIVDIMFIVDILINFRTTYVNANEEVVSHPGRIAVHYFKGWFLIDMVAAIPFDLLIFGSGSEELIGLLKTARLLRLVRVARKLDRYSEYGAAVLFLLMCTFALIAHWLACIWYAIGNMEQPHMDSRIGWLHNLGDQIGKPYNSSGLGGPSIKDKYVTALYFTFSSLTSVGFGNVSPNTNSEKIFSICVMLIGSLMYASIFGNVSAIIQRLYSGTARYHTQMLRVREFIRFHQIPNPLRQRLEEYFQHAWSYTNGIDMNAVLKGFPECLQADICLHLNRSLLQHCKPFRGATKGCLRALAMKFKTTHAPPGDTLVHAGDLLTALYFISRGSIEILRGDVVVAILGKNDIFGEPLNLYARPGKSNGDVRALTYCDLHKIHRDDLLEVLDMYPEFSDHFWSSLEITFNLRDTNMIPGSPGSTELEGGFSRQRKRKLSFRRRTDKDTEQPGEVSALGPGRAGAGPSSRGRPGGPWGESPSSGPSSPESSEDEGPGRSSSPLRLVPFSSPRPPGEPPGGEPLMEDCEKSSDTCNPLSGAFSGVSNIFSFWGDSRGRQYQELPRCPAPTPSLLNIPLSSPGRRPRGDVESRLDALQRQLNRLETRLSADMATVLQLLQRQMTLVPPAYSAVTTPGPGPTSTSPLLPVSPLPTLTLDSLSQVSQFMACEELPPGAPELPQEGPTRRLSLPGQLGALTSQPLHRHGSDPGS
As for `O=C(CNC(=O)/C=C/c1ccccc1)N=Nc1c(O)n(Cc2ccccc2)c2ccccc12`, the “hERG current change (%, negative = inhibition) at 1uM” value is -11.6%.
Take `O=C(Nc1ccc(N2CCCC2)c(Cl)c1)c1cccnc1`: the “hERG current change (%, negative = inhibition) at 1uM” value is 2.49%.
To `Cc1ccc(CCNC(=O)c2cc(-c3ccncc3)nc3ccccc23)cc1` belongs -1.05%; to `COC(=O)c1c(C)[nH]c(C(=O)NCc2ccco2)c1C`, 4.36%; to `Cc1ccc(C(C)C)c(OCCCNCc2cccnc2)c1.Cl`, -1.62%.
Take `CCOCCCNC(=S)N(Cc1ccco1)Cc1cc2cc3c(cc2[nH]c1=O)OCCO3`: the “hERG current change (%, negative = inhibition) at 1uM” value was determined as 9.38%.
To `COc1ccc(OCc2ccc(-c3nc4ccccc4c(=O)n3N)o2)cc1` belongs -3.45%.
To `CCOC(=O)N1CCN(C(=O)COC(=O)C2CCN(S(=O)(=O)c3c(C)c(C)cc(C)c3C)CC2)CC1` belongs -7.18%; to `COc1ccc(CCNC(=O)c2ccc(CS(=O)(=O)c3ccc(Cl)cc3)o2)cc1OC`, -4.68%.
For the molecule `COCCN(C(=O)C1CCC1)c1nnc(-c2cccnc2)s1`, the “hERG current change (%, negative = inhibition) at 1uM” value worked out at 11.2%.
On to `Cc1ccccc1C(=O)Nc1ccccc1C(=O)N1CCC(C)CC1`, for which the “hERG current change (%, negative = inhibition) at 1uM” value is 11.7%.
To `CN(c1ccccc1)S(=O)(=O)c1cccc(NC(=O)CC(C)(C)C)c1` belongs 4.77%.
Regarding `COc1ccc2oc(C(=O)NCCc3ccccc3)c(C)c2c1`, the “hERG current change (%, negative = inhibition) at 1uM” value is given as 14.8%.
Consider `Cc1cccc(N2CCN(Cc3nc(-c4cccc(Cl)c4)oc3C)CC2)n1`, for which the “hERG current change (%, negative = inhibition) at 1uM” value is reported as -7.13%.
To `COc1cc2ncc(S(=O)(=O)c3ccccc3)c(N3CCCC(C)C3)c2cc1OC` (centres unmarked) belongs 10.7%.
Take `O=C(NC(=S)NCCN1CCOCC1)c1ccccc1`: the “hERG current change (%, negative = inhibition) at 1uM” value is 4.85%.
Consider `COc1ccc(CC(=O)Nc2cccc(/C(C)=N/NC(=O)c3cccc([N+](=O)[O-])c3)c2)cc1`, for which the “hERG current change (%, negative = inhibition) at 1uM” value is given as -0.187%.
For `COc1ccc(C(=O)NNC(=O)c2ccc3ccccc3c2O)cc1`, the “hERG current change (%, negative = inhibition) at 1uM” value is 18.1%.
As for `COc1ccc(NC(=O)C(C)SCc2ccccc2)cc1OC` (centres unmarked), the “hERG current change (%, negative = inhibition) at 1uM” value came to 16.7%.
On to `COC(=O)c1sc2nc(SCC(=O)N(C)c3ccccc3)n(N)c(=O)c2c1C`, for which the “hERG current change (%, negative = inhibition) at 1uM” value stood at 15.6%.
For `Cc1cccc(N2C(=O)CC(Sc3nc(C)cc(C)n3)C2=O)c1` (centres unmarked), the “hERG current change (%, negative = inhibition) at 1uM” value is 11.8%.
To `CN(c1ccccc1)c1nc(N)c([N+](=O)[O-])c(Nc2ccccc2)n1` belongs 7.77%; to `CCCNC(=O)c1ccc2c(=O)c(O)c(-c3cccc(Br)c3)[nH]c2c1`, 14.8%.
Take `CS(=O)(=O)N(CC(=O)N1CCN(Cc2ccccc2)CC1)C1CCCCC1`: the “hERG current change (%, negative = inhibition) at 1uM” value was -5.43%.
`O=c1[nH]c2ccc(Br)cc2c(-c2ccccc2)c1N1CCOCC1`: the “hERG current change (%, negative = inhibition) at 1uM” value stood at 5.08%.
`CO/C=C/C#CC1(O)CCN(C)CC1`: the “hERG current change (%, negative = inhibition) at 1uM” value was 4.14%.
Take `COc1cc(O)c(C(CC(=O)N2CCN(c3ccccc3)CC2)c2ccc3c(c2)OCO3)c(OC)c1` (centres unmarked): the “hERG current change (%, negative = inhibition) at 1uM” value amounted to 17.6%.
As for `COc1ccc(CC(=O)OCC(=O)Nc2ccc(N3CCOCC3)cc2)cc1`, the “hERG current change (%, negative = inhibition) at 1uM” value is recorded as -3.77%.
As for `COc1ccccc1C1=NOC(COc2ccc3c(C)cc(=O)oc3c2)C1` (centres unmarked), the “hERG current change (%, negative = inhibition) at 1uM” value is 15.9%.
As to `CCOC(=O)CNS(=O)(=O)Cc1ccccc1`, the “hERG current change (%, negative = inhibition) at 1uM” value came to 11.1%.
For `CCCCCN(C(=O)CCC(=O)OCc1ccc(C(C)C)cc1)c1c(N)n(CCCC)c(=O)[nH]c1=O`, the “hERG current change (%, negative = inhibition) at 1uM” value is listed as -0.71%.
`O=C(CCCCCCCC(=O)NNC(=O)Nc1ccccc1)NNC(=O)Nc1ccccc1`: the “hERG current change (%, negative = inhibition) at 1uM” value is 14.9%.
Take `Cc1ccccc1NC(=S)NC(NC(=O)COc1ccccc1)C(Cl)(Cl)Cl` (centres unmarked): the “hERG current change (%, negative = inhibition) at 1uM” value is 14.3%.
To `CCOc1ccc(NC(=O)C(NC(=O)C2CCC(C)CC2)C(C)C)cc1` (centres unmarked) belongs 13.7%; to `CCSc1ccc2nnc(-c3ccc(F)cc3)n2n1`, -0.949%.
With `CCc1nnc2n1N=C(c1ccc(OC)cc1)CS2`, the “hERG current change (%, negative = inhibition) at 1uM” value is listed as -4.57%.
`CCCC[N+]1(C)C2CC(OC(=O)C(CO)c3ccccc3)CC1C1OC12.[Br-]` (centres unmarked): the “hERG current change (%, negative = inhibition) at 1uM” value is recorded as 11.9%.
On to `O=C(N[C@H]1CC1c1ccccc1)c1ccc([N+](=O)[O-])cc1` (some centres unmarked), for which the “hERG current change (%, negative = inhibition) at 1uM” value is recorded as 7.34%.
For the molecule `Cc1onc(C(=O)/C=C/N(C)C)c1C(=O)Nc1nccs1`, the “hERG current change (%, negative = inhibition) at 1uM” value amounted to 12.4%.
To `COc1cccc(C(c2nnnn2Cc2ccccc2)N2CCN(C(=O)c3ccco3)CC2)c1OC` (centres unmarked) belongs -7.66%.
Take `CN(C)S(=O)(=O)N1CCC(Oc2cccc(C(=O)N3CCCCCCC3)c2)CC1`: the “hERG current change (%, negative = inhibition) at 1uM” value stood at 11.7%.
On to `CC(=O)N1CCN(C(=O)c2ccc(Cl)c(S(=O)(=O)N3CCc4ccccc43)c2)CC1`, for which the “hERG current change (%, negative = inhibition) at 1uM” value is -0.541%.
To `Cc1ccc(C(c2c(C)n(C)n(-c3ccccc3)c2=O)c2c(C)n(C)n(-c3ccccc3)c2=O)s1` belongs 4.02%; to `O=C(N/N=C/c1ccccc1)c1n[nH]c2c1CCCC2`, 12.2%.

Source of the values: publication PMC4336329 (PLoS ONE, 2015).
